# Test results: PMC4336329 (PLoS ONE, 2015)
# Out of some 310,000 compounds screened, about 14,000 (4.5%) showed an effect of 50% or more. Effects have a minus sign here. This is one part of the list.
# Target: human ether-à-go-go-related gene (hERG) potassium channel (human, UniProt Q12809)
# Assay: primary screen, population patch clamp on CHO cells stably expressing hERG
# 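Also: peak tail current of the secondary pulse compared with the same well before compound.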
# Sequence of human ether-à-go-go-related gene (hERG) potassium channel (Q12809 whole entry, looked up): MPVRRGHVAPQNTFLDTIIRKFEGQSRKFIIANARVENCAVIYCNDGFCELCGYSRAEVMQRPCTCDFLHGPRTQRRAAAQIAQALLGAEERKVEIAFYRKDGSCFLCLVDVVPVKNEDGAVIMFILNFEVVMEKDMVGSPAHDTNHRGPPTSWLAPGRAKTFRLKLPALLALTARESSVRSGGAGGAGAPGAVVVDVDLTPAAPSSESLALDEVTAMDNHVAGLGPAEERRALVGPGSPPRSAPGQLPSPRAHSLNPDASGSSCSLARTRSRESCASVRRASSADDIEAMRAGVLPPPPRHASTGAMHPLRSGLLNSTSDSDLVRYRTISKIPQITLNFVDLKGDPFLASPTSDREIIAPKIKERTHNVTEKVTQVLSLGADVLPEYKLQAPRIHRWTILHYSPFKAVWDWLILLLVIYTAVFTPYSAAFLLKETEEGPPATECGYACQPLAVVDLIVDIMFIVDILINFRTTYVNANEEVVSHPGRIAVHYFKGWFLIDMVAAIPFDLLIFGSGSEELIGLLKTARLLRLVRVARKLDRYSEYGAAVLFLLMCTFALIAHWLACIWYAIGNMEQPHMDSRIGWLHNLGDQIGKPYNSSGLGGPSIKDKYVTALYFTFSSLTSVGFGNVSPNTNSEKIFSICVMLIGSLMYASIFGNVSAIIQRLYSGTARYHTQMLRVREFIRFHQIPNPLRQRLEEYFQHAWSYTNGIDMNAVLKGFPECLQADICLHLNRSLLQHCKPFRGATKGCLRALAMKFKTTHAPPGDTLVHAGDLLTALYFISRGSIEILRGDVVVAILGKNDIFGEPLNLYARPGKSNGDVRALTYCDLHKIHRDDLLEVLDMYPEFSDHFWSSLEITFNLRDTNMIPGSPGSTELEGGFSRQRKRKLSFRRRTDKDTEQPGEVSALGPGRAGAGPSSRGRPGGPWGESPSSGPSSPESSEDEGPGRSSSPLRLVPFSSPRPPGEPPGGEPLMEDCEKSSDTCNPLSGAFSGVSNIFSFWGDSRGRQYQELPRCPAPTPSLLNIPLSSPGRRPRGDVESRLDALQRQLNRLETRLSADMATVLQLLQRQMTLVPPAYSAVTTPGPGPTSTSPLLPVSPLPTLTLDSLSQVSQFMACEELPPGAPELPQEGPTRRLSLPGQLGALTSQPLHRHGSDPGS
row,Structure (SMILES),"hERG current change (%, negative = inhibition) at 10uM"
1,C=CCOc1ccc(/C=C2\C(=N)N3N=C(S(=O)(=O)CC)SC3=NC2=O)cc1OC,20.4%
2,Cc1cccc(-n2ncc3c(NCc4ccco4)ncnc32)c1,-27.5%
3,CN(C(=O)c1ccc2c(c1)OCO2)C1CCS(=O)(=O)C1 (stereo not drawn),7.11%
4,CCc1ccc(OCC(O)CN2CCC(CN3C(=O)c4cccc5cccc(c45)C3=O)CC2)cc1.Cl (stereo not drawn),-41.1%
5,CC1=C(C(=O)OCC(C)C)C(c2ccc(F)cc2)NC(=O)N1 (stereo not drawn),9.31%
6,CC(=O)Nc1ccc(N2C(=O)CSC2c2c(F)cccc2Cl)cc1 (stereo not drawn),-12.4%
7,CCOc1ccc(-c2nnc3ccc(SCC(=O)Nc4nc5ccccc5s4)nn23)cc1,-3.2%
8,COc1cccc(-c2[nH]nc3c2C(c2ccoc2)C(C#N)=C(N)O3)c1 (stereo not drawn),1.53%
9,CC(=O)N1c2ccc(S(=O)(=O)NCCc3ccccc3)cc2CC1C (stereo not drawn),-20.5%
10,COc1ccccc1NC(=O)N(c1c(N)n(Cc2ccccc2)c(=O)[nH]c1=O)C1CCCC1,-8.66%
11,CN(Cc1ccccc1)C(=O)CCC1CCN(S(C)(=O)=O)CC1,17.2%
12,COc1ccc(C(CNC(=O)C(C)Oc2ccc(Br)cc2)N2CCOCC2)cc1 (stereo not drawn),-4.41%
13,O=C(NC1CCSC1=O)c1ccc(Cl)cc1 (stereo not drawn),-0.357%
14,CCOC(=O)CSCC(=O)N1N=C(c2cccs2)CC1c1ccc(F)cc1 (stereo not drawn),-34.1%
15,CC1CCC/C(=N\NC(=O)Nc2ccccc2)C1 (stereo not drawn),-9.37%
16,CC(C)CC(=O)NC(=S)Nc1ccccc1C(F)(F)F,-0.604%
17,COC(=O)c1c(C)nc2ccccc2c1-c1ccccc1,-34%
18,CCN(CCn1cccn1)C(=O)CC1C(=O)NCCN1Cc1ccc(F)cc1 (stereo not drawn),14.6%
19,COc1cc(N)c(Cl)cc1C(=O)OCC(=O)c1cccs1,24.2%
20,O=C(CCCCCCC(=O)c1ccccc1)c1ccccc1,18.6%
21,CC(C)C1C(=O)NC(=S)N1S(=O)(=O)c1ccc(C(C)(C)C)cc1 (stereo not drawn),13.4%
22,COc1ccc(C2=NOC3(CC(=O)N(c4ccc(C)cc4)C3=O)C2)cc1 (stereo not drawn),-3.21%

row,Structure (SMILES),"hERG current change (%, negative = inhibition) at 10uM"
1,CCn1nccc1C(=O)Nc1ccc(C(=O)OC(C)C)cc1,12.9%
2,CCOC(=O)C[C@H]1c2ccc(C(F)(F)F)cc2S(=O)(=O)N1C1CCCC1,-32%
3,Cc1nc(NCc2ccccc2)sc1C(=O)Nc1ccccc1,10.1%
4,O=C(N/N=C/c1ccc(O)c([N+](=O)[O-])c1)C(O)(c1ccccc1)c1ccccc1,15.4%
5,COc1cccc(C2=NOC(C(=O)Nc3cccc(C(C)=O)c3)C2)c1 (stereo not drawn),-11.8%
6,O=C(N[C@@H](Cc1ccccc1)C(=O)OCc1ccccc1)c1nc[nH]c1C(=O)NCc1ccccc1,0.24%
7,Cc1cccc(OCCC(=O)N(C)CC(=O)Nc2cccc3ccccc23)c1,-10.3%
8,CC(=O)COc1ccc2c3c(c(=O)oc2c1)CCCC3,-15.9%
9,CC1(C)O[C@@H]2CC3C4C[C@H](F)C5=CC(=O)C=CC5(C)C4C(O)CC3(C)[C@]2(C(=O)CO)O1 (stereo partly drawn),1.68%
10,COc1cc(C(C)=O)ccc1OCC(O)CNCC1(N2CCCCC2)CCCCC1.O=C(O)C(=O)O (stereo not drawn),-42.1%
11,Cn1c(=O)cc(N2CCCCC2)[nH]c1=O,9.92%
12,O=C(C1CCC(CNS(=O)(=O)c2cccs2)CC1)N1CCN(c2ccc(F)cc2)CC1 (stereo not drawn),-29.5%
13,Cc1ccc(CCNC(=O)Cn2ccc3cc(S(=O)(=O)N4CCCC4)ccc32)cc1,2.09%
14,Cc1c(NC(=O)CCCN2C(=O)c3cccc4cccc(c34)C2=O)c(=O)n(-c2ccccc2)n1C,-5.07%
15,COC(=O)c1cccc(NC(=O)CSc2nc(=O)cc(N)n2-c2ccccc2)c1,12.1%
16,COc1ccc(-c2nc(CC(=O)O)cs2)cc1,6.7%
17,CCS(=O)(=O)NC(C)C(c1cccs1)N1CCN(c2ccc(F)cc2)CC1 (stereo not drawn),-8.13%
18,O=C(CN1CCN(c2ccc(F)cc2)CC1)Nc1nccs1,-1.39%
19,O=C(Nc1ccccc1)O/N=C(\c1ccccc1)c1ccccn1,-4.87%
20,COc1ccccc1N1CCN(CC(O)COCCOc2ccc(Br)cc2)CC1.Cl (stereo not drawn),-58.8%
21,O=C1OCC(CO)(CO)N=C1NNc1ccccc1Cl,16.2%
22,COc1ccc(OC)c(C2C(C(=O)c3ccco3)=C(O)C(=O)N2Cc2cccnc2)c1 (stereo not drawn),16.6%

row,Structure (SMILES),"hERG current change (%, negative = inhibition) at 10uM"
1,CCOc1cc2c(cc1OCC)-n1cccc1C(c1ccccc1OC)NC2.Cl (stereo not drawn),-7.52%
2,N#CCCNC(=O)CCN1CCOCC1,7.79%
3,CC1CCc2nn(CC(=O)N3CCN(C(=O)c4ccco4)CC3)cc2C1 (stereo not drawn),-13%
4,Cc1cccc(NC(=O)CSc2nc3ccccc3nc2N2CCCC2)c1C,-15.2%
5,O=C(NCC1CCCO1)c1ccc(Cn2c(=S)[nH]c3ccccc3c2=O)cc1 (stereo not drawn),18.2%
6,COc1ccc(N(CC(=O)N2CCN(Cc3ccccc3)CC2)S(C)(=O)=O)cc1Cl,-4.62%
7,CCOC(=O)C1CCCN(C(=O)CN2C(=O)NC(C)(c3ccc4ccccc4c3)C2=O)C1 (stereo not drawn),-15%
8,COc1ccc(CN2CCN(Cc3ccccc3)C(CCO)C2)cc1OC (stereo not drawn),-30.7%
9,COc1ccc(C)cc1NC(=O)CN(c1ccc(C)cc1)S(C)(=O)=O,1.61%
10,COc1ccccc1C(=O)COC(=O)CN1C(=O)c2ccccc2C1=O,21.2%
11,CCN(CC)S(=O)(=O)c1ccc(N2CCCC2)c(NC(=O)c2ccc(OC)cc2OC)c1,-43%
12,COc1ccc(C(NC(=O)c2ccccc2F)NC(=O)c2ccccc2F)cc1,-1.3%
13,CCN(CC(=O)Nc1c(F)cccc1F)C(=O)c1ccccc1F,20.3%
14,O=C(C1CC1)N1CCN(c2ccc(O)cc2)CC1,-17.3%
15,CCOCCCNC(=O)/C(C#N)=C/c1ccccc1F,23.5%
16,CCOc1ccccc1N1CC(C(=O)Nc2cccc(S(=O)(=O)N3CCCCC3)c2)CC1=O (stereo not drawn),-1.95%
17,Cc1ccc(S(=O)(=O)Nc2cc(S(=O)(=O)N3CCCCC3)ccc2N2CCOCC2)cc1,28%
18,CCCNC(=O)c1ccc(N2CCC3(CC2)CC(c2cccc(Br)c2)=NO3)c(NC(=O)c2c(Cl)cccc2Cl)c1,5.92%
19,COc1ccc(CN2CCN(C(c3ccc(F)cc3)c3ccc(F)cc3)CC2)c(OC)c1OC.Cl,-13.3%
20,CCOc1ccc(N=C2Sc3nc4ccc(C)cc4cc3CN2CCOC)cc1,41.4%
21,C/C(=N\NC(=O)C1CCCN(S(=O)(=O)c2ccccc2)C1)c1ccccn1 (stereo not drawn),-20.8%
22,Fc1ccc(-c2nc3ccccn3c2NCc2ccc3c(c2)OCO3)cc1,-24.3%

row,Structure (SMILES),"hERG current change (%, negative = inhibition) at 10uM"
1,CC(C)CCNC(=O)C1(c2cccs2)CCOCC1,6.48%
2,Cc1ccc(CNC(=O)CSc2nccn(-c3ccc(C)c(F)c3)c2=O)cc1,0.718%
3,COC(=O)c1ccccc1NC(=O)NC1CCCCC1,5.86%
4,COc1cccc(/C=N/Nc2cc(Cl)nc(C)n2)c1O,20.8%
5,CCOC(=O)c1cnn(-c2cc(C)nc3c(-c4ccccc4)cnn23)c1N,-18%
6,CC(C)OP(=O)(OC(C)C)C(NC(=O)c1ccc(Br)cc1)c1ccccc1 (stereo not drawn),-35.8%
7,Cc1ccc(NC(=O)C(C)OC(=O)CCC2CCCCC2)cc1 (stereo not drawn),-12.6%
8,COc1ccccc1N=Nc1nc(-c2ccccc2)c(-c2ccccc2)[nH]1,-1.04%
9,COc1cccc(N(C(=O)CNC(=O)c2ccco2)C(C(=O)NC2CCCC2)c2ccncc2)c1 (stereo not drawn),5.05%
10,CCOC(=O)Cc1csc(SCC(=O)NC2CCS(=O)(=O)C2)n1 (stereo not drawn),15.2%
11,C=Cc1ccc(COC(=O)c2cn(CC)c3nc(C)ccc3c2=O)cc1,-45.4%
12,C[C@H]1CN=C(N(C)C)N1CCCCc1ccccc1,-25.5%
13,COc1cc(Cl)c(C)cc1NC(=O)CCCn1c(=O)oc2ccccc21,-58.7%
14,COC(=O)c1sccc1NC(=O)COc1ccc(Cl)cc1Cl,5.48%
15,CC(C)c1nnc(NC(=O)CS(=O)(=O)c2ccccc2)s1,13.1%
16,COc1ccc(C(=O)Nc2nnc(CC(=O)N/N=C/c3ccc(O)cc3O)s2)cc1,14%
17,CCOc1ccc2nc(NCCCNS(=O)(=O)c3ccccc3)c(C#N)cc2c1,-19.2%
18,CCN(Cc1ccncc1)C(=O)CCc1ccccc1,6.16%
19,O=C(NCc1ccc(Cl)cc1)c1ccc(Cl)cc1[N+](=O)[O-],0.453%
20,CC1(C)Cc2c(C#N)c(NCCCO)nc(-c3ccccc3)c2CO1,-56%
21,COc1cc(C(=O)Nc2ccc(OCC(=O)O)cc2)cc(OC)c1OC,17.8%
